Assay results as given in PubChem BioAssay AID1030 (National Center for Advancing Translational Sciences (NCATS), 2008).
Screen size: about 220,000 compounds; about 16,000 (7.3%) were called active. The inconclusive results got no clear call from the source; some entries with a clear call stand among them for comparison. The call rests on the fitted dose curve; in most records, active means well fitted inhibition curve with a large enough effect (not every such curve was filed as active); inconclusive means small, poorly fitted or top-dose-only effect, or another doubt; inactive means no such curve, though single readings can be large or run the other way. No potency is given beside an inconclusive call; the fits are too rough.

Biological target: Aldehyde dehydrogenase 1A1 (Homo sapiens) (UniProt P00352)
Assay: qHTS Assay for Inhibitors of Aldehyde Dehydrogenase 1 (ALDH1A1);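 on activity, negative = inhibition: plate controls were no enzyme wells and a reference inhibitor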
Settings: Purified ALDH1A1, NADH fluorescence, propionaldehyde substrate; series mostly up to 75.3 µM; activity, negative = inhibition: at the top concentration
Potency means the concentration at half of the fitted maximal effect; tags describe the fitted curve by direction and shape.

Chain of UniProt P00352 (P00352 whole entry, looked up): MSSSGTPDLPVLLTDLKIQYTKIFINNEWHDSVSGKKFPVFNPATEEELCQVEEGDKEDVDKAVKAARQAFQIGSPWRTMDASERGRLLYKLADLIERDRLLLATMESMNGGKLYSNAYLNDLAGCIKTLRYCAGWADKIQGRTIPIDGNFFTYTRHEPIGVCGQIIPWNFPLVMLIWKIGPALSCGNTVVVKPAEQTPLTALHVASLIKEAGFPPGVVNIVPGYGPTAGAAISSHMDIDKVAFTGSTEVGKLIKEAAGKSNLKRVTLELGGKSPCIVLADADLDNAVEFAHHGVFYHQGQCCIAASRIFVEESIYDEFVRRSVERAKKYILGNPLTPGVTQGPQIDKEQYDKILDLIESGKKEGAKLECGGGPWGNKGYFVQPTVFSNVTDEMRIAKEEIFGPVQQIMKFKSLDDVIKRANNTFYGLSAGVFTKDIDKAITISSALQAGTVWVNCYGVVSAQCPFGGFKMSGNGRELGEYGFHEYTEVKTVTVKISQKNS

SMILES	Potency	activity, negative = inhibition
COc1cccc(Cn2c(=O)cnc3cnc(Oc4cccc(Cl)c4)nc32)c1	inconclusive [inhibitor, single point]	
O=c1c2cc(N3CCOCC3)ccc2[nH]c(=S)n1CCCN1CCN(c2ccccc2F)CC1	inconclusive [inhibitor, partial curve]	
COc1ccccc1N1CCN(C(=S)Nc2ccc3nc(N4CCOCC4)cc(C)c3c2)CC1	inconclusive [inhibitor, partial curve]	
CC(=O)Nc1cc(C(=O)OC(C(=O)c2ccccc2)c2ccccc2)ccc1C (centres undefined)	inconclusive [inhibitor, single point]	
CCOC(=O)CN1C(=O)S/C(=C/C=C/c2ccc(N(C)C)cc2)C1=O	active: 25.1 µM	
CCCCOc1ccc(C(=O)N/C(=C\c2cccc([N+](=O)[O-])c2)C(=O)OCCC)cc1		inactive: 2.99%
O=C1/C(=C/c2ccc(O)c(O)c2)SC(=S)N1Nc1ccccc1	inconclusive [inhibitor, partial curve]	
Cc1ccc(S(=O)(=O)CCSc2nc(C)cc(C)c2C#N)cc1	active: 2 µM	
CNc1ccnc(-c2ccccc2C(F)(F)F)n1		inactive: 17.6%
COC(=O)/C(=C/c1cn(C)c2ccccc12)[N+](=O)[O-]	active: 1.78 µM	
CCCSc1nc(C)c(-c2csc(C(C#N)=C3CCCC3)n2)cc1C#N	active: 22.4 µM	
CCNc1nc(NCC)nc(N/N=C/c2ccc(N(C)C)cc2)n1	inconclusive [inhibitor, partial curve]	
COc1cnc(-c2ccccn2)nc1Sc1ccc(C)cc1	inconclusive [inhibitor, partial curve]	
O=C(CN(C1CCCCC1)S(=O)(=O)c1ccccc1)NCc1ccco1	inconclusive [inhibitor, single point]	
Brc1ccc2c(c1)c1cc(Br)ccc1n2CC1CO1 (centres undefined)		inactive: -5.69%
COc1cccc(C(=O)Nc2nnc(-c3cccs3)o2)c1		inactive: 7.53%
COc1ccc(N/C=C2/Sc3ccccc3NC2=O)cc1	active: 3.98 µM	
CCC1OC23CCCCC2C(C#N)(C(=N)O3)C1(C#N)C#N (centres undefined)	inconclusive [inhibitor, partial curve]	
COc1ccccc1NC(=O)c1sc2ncn(Cc3ccccc3C)c(=O)c2c1C	inconclusive [inhibitor, partial curve]	
O=C1CCCC(O)=C1C=NCCc1ccccc1	inconclusive [inhibitor, single point]	
COc1ccc(S(=O)(=O)N2CCCCCC2)cc1Br		inactive: 3.3%
C1CN(c2nc3nonc3nc2N2C[C@H]3CC[C@H]2C3)CCS1	inconclusive [inhibitor, partial curve]	
CCCCC(CC)Cn1c2nc3ccccc3nc2c2c(=N)oc(C)nc21 (centres undefined)	inconclusive [inhibitor, partial curve]	
CCOC(=O)C1=C(C)NC(=S)NC1c1ccc(-c2ccc(Cl)cc2)o1 (centres undefined)	active: 4.47 µM	
COC(=O)CN1C(=O)C2(C(C#N)=C(N)Oc3ccccc32)C2=C1CC(C)(C)CC2=O (centres undefined)	active: 6.31 µM	

SMILES	Potency	activity, negative = inhibition
Cc1cccc(Cn2c(SCCO)nc3c2c(=O)n(C)c(=O)n3C)c1	inconclusive [inhibitor, single point]	
COCCNC(=S)N(Cc1cccnc1)Cc1ccc(OC)c(OC)c1		inactive: 12.2%
Cn1c(=O)c2c(nc(CN3CCCCC3)n2Cc2c(F)cccc2Cl)n(C)c1=O	inconclusive [inhibitor, partial curve]	
Cc1[nH]c2ccccc2c1C(=O)COC(=O)C1CC(=O)N(Cc2ccco2)C1 (centres undefined)	inconclusive [inhibitor, single point]	
CCOC(=O)C1=C(O)/C(=C/c2cc(OC)c(OC)c(OC)c2)N=C1C		inactive: -5.83%
O=C(CSC1=NCCS1)Nc1ccccc1F	active: 8.91 µM	
O=c1[nH]c(Nc2ccccc2)cc2ccccc12	inconclusive [inhibitor, single point]	
CC1CC(C)CN(C(=O)CCNS(=O)(=O)c2ccc3c(c2)CCC(=O)N3)C1 (centres undefined)		inactive: 3.6%
COc1ccc(OC)c(NC(=O)CSc2nnc(C3CCCCC3)n2-c2ccccc2)c1	inconclusive [inhibitor, single point]	
CCOc1ccccc1NC(=O)CC1Nc2ccccc2NC1=O (centres undefined)		inactive: -8.18%
CCCc1cc(=O)[nH]c(SCC(=O)CSc2nc(CCC)cc(=O)[nH]2)n1	active: 14.1 µM	
CC(C)CC(=O)Nc1nnc(SCC(=O)Nc2ccc(F)cc2)s1		inactive: 11.3%
Cc1ccc(NC(=O)CSCC(=O)N2c3ccccc3CCc3ccccc32)cc1	active: 3.16 µM	
CCS(=O)(=O)Nc1ccc(-c2nc3cccnc3s2)cc1	inconclusive [inhibitor, partial curve]	
CCN(Cc1cc2ccccc2[nH]c1=O)C(=O)C1CCCCC1	inconclusive [inhibitor, single point]	
NC(=O)NC(CC(=O)NCCc1ccc(S(N)(=O)=O)cc1)c1ccccc1Cl (centres undefined)		inactive: 2.25%
NC(=O)CC1Nc2cccc3cccc(c23)NC1=O (centres undefined)	inconclusive [inhibitor, single point]	
CCN(CC)c1ccc(CNCc2cccs2)cc1	inconclusive [inhibitor, single point]	
CC1=CC(=O)CC(C)(C)C1(O)/C=C/C(C)=C\C(=O)O (centres undefined)	inactive	
O=C(Cn1cnc2ccccc2c1=O)Nc1ccc(-c2nnc3n2CCCCC3)cc1	active: 14.1 µM	
CCN(CC)S(=O)(=O)c1ccc(/C=C/C(=O)OCC(=O)Nc2ccc(S(N)(=O)=O)cc2)cc1	inconclusive [inhibitor, partial curve, poor fit]	
CSCCC(NC(=O)c1cc([N+](=O)[O-])cc([N+](=O)[O-])c1)c1nc2ccccc2[nH]1 (centres undefined)		inactive: 4.43%
O=C(CCN1C(=O)C2C3C=CC(C3)C2C1=O)NC1CCCc2ccccc21 (centres undefined)	inconclusive [inhibitor, single point]	
O=C(Nc1cccc(F)c1)N1CCC2(CCNCC2)CC1	inconclusive [inhibitor, single point]	
COC(=O)c1ccncc1C(=O)Nc1ccc(F)cc1		inactive: 3.05%

SMILES	Potency	activity, negative = inhibition
CCCOc1ccc(N2C(=O)CC(NCc3ccncc3)C2=O)cc1 (centres undefined)		inactive: -13%
Cn1c(=O)c2c(nc(SCCCC#N)n2Cc2c(F)cccc2Cl)n(C)c1=O	inconclusive [inhibitor, partial curve]	
Cc1cc(C(=O)N2CCC(C(=O)O)CC2)c(C)o1		inactive: 19.8%
COc1cc(/C=C/C(=O)Nc2nnc(CC(C)C)s2)cc(OC)c1OC	inconclusive [inhibitor, single point]	
CCc1cc(=O)oc2cc(OC(C)=O)cc(OC(C)=O)c12	inconclusive [inhibitor, partial curve]	
Cc1nn(-c2ccccc2)c(C)c1NC(=O)c1cccs1		inactive: 3.1%
Cc1ccc([N+](=O)[O-])cc1NC(=O)CCCOc1ccccc1		inactive: -2.44%
COC(=O)Cc1[nH]nc2c1C1(C(=O)N(Cc3ccccc3)c3ccccc31)C(C#N)=C(N)O2 (centres undefined)	active: 20 µM	
O=S(=O)(c1cccc2cccnc12)N1CCN(c2ccccc2)CC1	inconclusive [inhibitor, full curve]	
O=C1[C@H]2[C@H]3[C@H](O)[C@H](O)C/C(=N/OC[C@@H](O)COCc4ccco4)[C@@H]3CC[C@@H]2C(=O)N1c1cccc(Oc2ccccc2)c1		inactive: -8.51% [at 13.5 µM]
N#CC(Sc1ccccn1)c1ccc(Cl)cc1 (centres undefined)	inconclusive [inhibitor, single point]	
Cc1cccc(C)c1OCCNC(=O)C(=O)NCc1ccco1	inconclusive [inhibitor, single point]	
CC(C)Cn1c(N)c(C(=O)COC(=O)CC23CC4CC(CC(C4)C2)C3)c(=O)n(C)c1=O	inconclusive [inhibitor, single point]	
COc1cc(CNCCN(C)C)c(Br)cc1OCC(=O)NCc1ccccc1		inactive: 10.7%
CN1CC[C@@]2(CCCN(C(=O)c3cccc(F)c3)C2)C1		inactive: 2.61%
CCNc1nnc(-c2ccccc2OC)s1	inconclusive [inhibitor, partial curve]	
Brc1cc(Br)c2nc(-c3cccs3)ccc2c1		inactive: -3.79%
C#CCOCCOCCOCCNc1nc(N2CCN(C(=O)[C@H](CCCCN)n3cc([C@@H](N)C(C)CC)nn3)CC2)nc(N2CCN(C(=O)[C@H](Cc3ccc(O)cc3)n3cc([C@@H](N)C(C)CC)nn3)CC2)n1 (some centres undefined)	inconclusive [inhibitor, single point]	
O=C(C(=S)N1CCOCC1)c1c[nH]c2ccccc12	active: 3.16 µM	
CC(c1ccccc1)N1CCn2c(nc3cc(NS(C)(=O)=O)ccc32)C1 (centres undefined)		inactive: -8.04%
O=C(NOC(=O)c1ccccc1)c1ccccc1	active: 20 µM	
CCOC(=O)C(C)Sc1nc(-c2cccs2)ccc1C#N (centres undefined)	inconclusive [inhibitor, partial curve]	
O=C(OCc1ccccc1)C1CCCN1C(=O)c1ccccc1[N+](=O)[O-] (centres undefined)	inconclusive [inhibitor, single point]	
CC(C)C(NC(=O)C12CC3CC(CC(C3)C1)C2)C(=O)N/N=C/C1=C(N2CCOCC2)C(=C\c2cccc([N+](=O)[O-])c2)/CC1 (centres undefined)	inconclusive [inhibitor, partial curve, poor fit]	
